From article PMC7039627 (mAbs, 2020)

Molecular target: T1, mCD80-6xHis (mouse, UniProt Q00609)
T1 sequence: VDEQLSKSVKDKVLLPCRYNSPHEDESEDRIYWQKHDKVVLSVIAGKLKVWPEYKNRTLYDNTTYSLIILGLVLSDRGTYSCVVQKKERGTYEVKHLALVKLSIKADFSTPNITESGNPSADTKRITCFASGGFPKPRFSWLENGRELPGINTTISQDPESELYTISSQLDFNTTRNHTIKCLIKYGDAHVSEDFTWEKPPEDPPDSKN
Assay: ELISA

B1: mCTLA-4-mFc dimer (Fc fusion)
chain: not shown
- binding result: binds
